Results on 22 molecules are retold here after publication PMC12136788.

The labels stand for the following.
B1: chr2:198351390:198351391:-_ENSG00000144381_ENST00000345042|hu_hu|hu_hu_hu_mus_False|8_68 (ssRNA)
RNA: GGGAGUUCUACAGUCCGACGAUCUCAUUCCCACCCUCCACAGAAAGGCUGCUUCUGAACUCUCAUGGUGGUGGCAAGCGCUACAGUCCUGAUGCUCACAGAACAGUAGAGAUGCCUCAGUGAUUUAUUAAGUUGAAAGGACACCAACAGAGGAUUGAGCAUCA
B2: chr5:124080617:124080618:-_ENSMUSG00000049550_ENSMUST00000063905|mus_mus|motif|central (ssRNA)
RNA: GGGAGUUCUACAGUCCGACGAUCCUCCAUCUCUUUAGCAUGAGCAGACCGCUCAGAGUCCUGUUUACUCUGUAAACUUUCGGUUUCGUGCUGGUAAUCUAGUCUCAGUCUCUCUAUCUGUGUCUUUAACUCAGCAAAUUCAGCCAACAGAGGAUUGAGCAUCA
B3: chr10:12291664:12291665:+_ENSG00000151465_ENST00000378900|hu_hu|motif|central (ssRNA)
RNA: GGGAGUUCUACAGUCCGACGAUCGUUCCAGUACGCUCAUCAGUCGUCCUCCUGCUGAUUUCUCUUCAGCUUAAGGAAGUCGGUUAGCUUGUGAGCGUCCUCCCCAGUAGAGAGGUCUACAAAGUCCUUGGGUAGCCGGUAACUCAACAGAGGAUUGAGCAUCA
B4: 10056728_10056848_905_CDS_ENSMUSG00000056763_ENSMUST00000071087|mouse|control|control (ssRNA)
RNA: GGGAGUUCUACAGUCCGACGAUCAAACCUCUCGUCCAUGUCUUCACUCACACCAGGGUCUCGGUCGGCUCUGCAAUGUUGUCUGUCAAGCACCCGCUCCCCGUUAGCCCUGCGGGCUCUUCUCUCUGGGACACCAGCGCUGCCCAACAGAGGAUUGAGCAUCA
B5: chr5:54693298:54693299:+_ENSG00000039123_ENST00000230640|hu_mus|FALSE|FALSE (ssRNA)
RNA: GGGAGUUCUACAGUCCGACGAUCUUUUAAGACACUCUGUCUGUUGUCCACAGGUCGAAGGUCUUUUGGAAUAUAGAGCCUGACAGUGCUGAUGGCAGACAGGAGAUGCACCAAAACUGGAACAACCUGCAUCUCCCCUUUCUCCAACAGAGGAUUGAGCAUCA
B6: 142705494_142712874_349_3pUTR_ENSMUSG00000030282_ENSMUST00000032419|mouse|control|control (ssRNA)
RNA: GGGAGUUCUACAGUCCGACGAUCGAUGGACCUGUGCACCAAACUGUUUGGCCACAUUCUCAAUUUCAUCAUGGUCUGUUGAAACCCACACACUCUGGAAGACCCCCGCAUCCAGGGCGGCGCGCAGGACCCAGCCAAUGAGCGCAACAGAGGAUUGAGCAUCA
B7: chr17:65740002:65740003:+_ENSG00000130935_ENST00000581375|hu_hu|hu_hu_hu_mus_False|28_48 (ssRNA)
RNA: GGGAGUUCUACAGUCCGACGAUCAACAAAUCUUUCUUCCCUGGACGAACAGGAAGAUUCAUAUUAAAAAAAAUAUAUAUCCAUCAAGGAGAAUUGAGUGGCCACACAGAGCUCCAGAGCACUUUGGGAGGUGGAUCUCUGAGUCAACAGAGGAUUGAGCAUCA
B8: 125507366_125507486_2970_CDS_ENSMUSG00000029478_ENSMUST00000125053|mouse|control|control (ssRNA)
RNA: GGGAGUUCUACAGUCCGACGAUCUGGGUGAGGAGGCGGGCUCCCGGGCCGGGGGUUUGGUGAGGAAGGCAUGGCCAGCGUCCACACGGGGCCGCUCGGGCCGGGCGACCCGAGAGGUCUCCUUGGGUAACAGGACGGGCUCCACAACAGAGGAUUGAGCAUCA
B9: 76055227_76076951_758_CDS_ENSMUSG00000021589_ENSMUST00000022078|mouse|control|control (ssRNA)
RNA: GGGAGUUCUACAGUCCGACGAUCCCCUUCUGUGGUGGUAACACAGCUCCCUCGGUCUGAAGUACACAGGGGGCAUGUACAAGGUAAUUCUUCAUUUUGUCUCGUACCAACAGCCGCAAUGAUUACCGGAACUGAGUUUGAUGCCAACAGAGGAUUGAGCAUCA
B10: chr3:102833055:102833056:+_ENSMUSG00000068823_ENSMUST00000029446|mus_hu|motif|central (ssRNA)
RNA: GGGAGUUCUACAGUCCGACGAUCUUCAGUAGUAUUUGCUGAUUCUUCUUUUUCAGCACACGUUUCAAAGGAUGAAAGUUGCGGGUAUUAAAAAAAAGAGCGAGAGAAAAUGAUCUACCAAGCUAAUAAAGAAUACAACUGCUGCAACAGAGGAUUGAGCAUCA
B11: chr17:88413838:88413839:-_ENSMUSG00000005371_ENSMUST00000130379|mus_hu|FALSE|FALSE (ssRNA)
RNA: GGGAGUUCUACAGUCCGACGAUCUACACAAGCUGCUCUACAAAGAUCCUGUUCCAGCAAGUAAGAGAAGAUUUUUAGAACCACUUCAUCUGGCAGUUUCUCCUGAAGAUACUGUUCAGCAGGUGCUGCUGAUAGAUCUUGUGACAACAGAGGAUUGAGCAUCA
B12: chr17:62496016:62496017:-_ENSG00000108654_ENST00000581693|hu_mus|motif|central (ssRNA)
RNA: GGGAGUUCUACAGUCCGACGAUCCUGAUAACACACAAUAUAAAGAGCAAUUAUGAAAAACAGACAUUUACAUAUACUUCGGAAGUCUUAUUGAGAAUACCCUGUUGGCAUGGGAUAGCCAAUCAUAGGCGCAGCAGCUGCGGUCAACAGAGGAUUGAGCAUCA
B13: 53529767_53529887_1599_CDS_ENSG00000100523_ENST00000323669|human|control|control (ssRNA)
RNA: GGGAGUUCUACAGUCCGACGAUCAACUGGAUUCCAGCCAGUCAUUAUGUCAUAAGUAAUUACACAUCCCAAGGAAUGUGAUACUAUUGAGACUUUACCCCCUUUUUCUUCAAAGUCUGGAUUCCGAGAACAGAAAAGGGAAUACAACAGAGGAUUGAGCAUCA
B14: 139368980_139369100_3101_CDS_ENSG00000148396_ENST00000313050|human|control|control (ssRNA)
RNA: GGGAGUUCUACAGUCCGACGAUCUUGUCUGGGAUGACUGGCAACACUUUGCUGAGAAGCGAGGCUGUCAGAAUGGGACGGGUUGUACACGUUUACAGGAUUUUCCAAAGUCCUGCUUAAGGUAAAGUCUAGGGCUCCGUAAGUCAACAGAGGAUUGAGCAUCA
B15: chr14:56483160:56483161:+_ENSMUSG00000075592_ENSMUST00000168479|mus_hu|FALSE|FALSE (ssRNA)
RNA: GGGAGUUCUACAGUCCGACGAUCAGCCUGUAGUUGGGGUGUAGAGGUCAAGGGUGGCCCUAUCUGUGGGAGAUCCGAGCUAACUUUGUCUUUUACAUCUGAGCUCCCAGGGACCACCAAUAAACUCGUAACUUUUGGGGAAAUCAACAGAGGAUUGAGCAUCA
B16: 80037470_80040787_425_CDS_ENSMUSG00000017686_ENSMUST00000092857|mouse|control|control (ssRNA)
RNA: GGGAGUUCUACAGUCCGACGAUCUGUUACCUUAUCAAUAGAAUGUUUGUUGUUAACAGCAUAAACUAUGCAGAUAACAUUAGCCUGUGAUAUUUCUUGAUGAAGUUGUUCAUCACUCUGUUCUGCUUCUGAAUAAUCGACAAUCAACAGAGGAUUGAGCAUCA
B17: 83126347_83126467_1584_3pUTR_ENSMUSG00000058881_ENSMUST00000071233|mouse|control|control (ssRNA)
RNA: GGGAGUUCUACAGUCCGACGAUCGGGGGAGCUUGGGUAGCCGGAGCAUCCUGUUCACGCUUGCGUUUUUCCUGGCUCACCAGUAUAUACUCACGCUUGUCUUUGUCAAAGGCUACAUCCCCUGCCAGCGCCUCGUCCCAGGUCCAACAGAGGAUUGAGCAUCA
B18: 21200532_21200737_1338_CDS_ENSMUSG00000032178_ENSMUST00000067646|mouse|control|control (ssRNA)
RNA: GGGAGUUCUACAGUCCGACGAUCAGACUUCUCCUCCCCAUCCUCUUCCAUAGGGCGUUUCAUGGGUGUGAUAGCAUAGGUGGUGCUGGGAGGAAUUUGAACAGUGUAGUCCACCGGGUUCUCGUUCUUUGGUUUCUUGGGCAUCAACAGAGGAUUGAGCAUCA
B19: chr20:44444512:44444513:+_ENSG00000175063_ENST00000356455|hu_hu|motif|central (ssRNA)
RNA: GGGAGUUCUACAGUCCGACGAUCCAGGUACUUCUUAAAAGCUGUGGGGUUUUUCCAGAGCUCGGCAGCAUGUGUGUUCAAGGGACGGUCAAUGUUGGGUUCUCCUAGAAGGCUCUGGAUGGAGAGCAGAAUGGUCCUGACAUCCAACAGAGGAUUGAGCAUCA
B20: chr4:52499564:52499565:+_ENSMUSG00000028312_ENSMUST00000117280|mus_hu|FALSE|FALSE (ssRNA)
RNA: GGGAGUUCUACAGUCCGACGAUCUGUAUAUAAACAAAUUAGUUAUCUCAAGUCCUUAAAAGUUUACAUUUAAAAAAACAGGUCAAGAUGAAGAAAUAACUUUGUAGUUUAAACUUCCACAUGUGCUCCUUUGGGUGGUUUUGCCAACAGAGGAUUGAGCAUCA
B21: chr2:27445747:27445748:+_ENSG00000084774_ENST00000264705|hu_mus|FALSE|FALSE (ssRNA)
RNA: GGGAGUUCUACAGUCCGACGAUCAGAGGCAGGGUCACCGGGUCCAUUACUUAGGAAGAGACCGUCAUAUUUCUGACUGUCUAACUCGUGGUCCCAGGGUACCACGGUAACUUCAGCCCCAAGCUGGCAGAGACAUCGGAUCUGCAACAGAGGAUUGAGCAUCA
B22: 134314381_134319624_517_CDS_ENSG00000130723_ENST00000357304|human|control|control (ssRNA)
RNA: GGGAGUUCUACAGUCCGACGAUCCGUCGGAAAUUCCUCGGGAGAGAAGGAUAACAGUCGGCUUGAGCCCCUUAAACCACCUUCGUGUCCUACUGGCUUUCCAUUCAGCUGUGCCCAUGACUUUGGUCCACCUGGCACUGAAUUCAACAGAGGAUUGAGCAUCA

Some of the results follow.

This assay addresses T1, UNK ZnF1-3 (human, UniProt Q9C0B0 31-174).
T1 sequence: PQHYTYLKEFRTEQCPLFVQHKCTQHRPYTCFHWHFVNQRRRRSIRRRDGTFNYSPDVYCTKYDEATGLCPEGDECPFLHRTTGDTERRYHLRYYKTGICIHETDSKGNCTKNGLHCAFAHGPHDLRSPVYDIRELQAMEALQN
Briefly: nsRBNS (natural sequence RNA bind-n-seq); RBNS binding buffer (assumed for nsRBNS): 25 mM Tris pH 7.5, 150 mM KCl, 3 mM MgCl2, 0.01% Triton X-100, 500 ug/ml BSA, 20 U/ml SUPERase-In, 4 C; UNK is unkempt and MSI1 is Musashi-1; names of the RNAs are library labels; protein concentration not given here; high values mean tight binding.
The molecule B1 showed a binding signal of 1.49 enrichment R. To B2 belongs 0.732 enrichment R; to B3, 0.289 enrichment R. In the case of B4, the binding signal amounted to 0.814 enrichment R. To B5 belongs 0.509 enrichment R; to B6, 0.588 enrichment R; to B7, 1.73 enrichment R. Take B8: the binding signal worked out at 1.44 enrichment R.

In the case of B9, the binding signal was found to be 0.787 enrichment R. As to B10, the binding signal worked out at 1.35 enrichment R. The same measure for B11: 0.713 enrichment R; for B12: 1.33 enrichment R.

As to B13, the binding signal came to 0.583 enrichment R.

B14 displayed a binding signal of 0.876 enrichment R.

On to B15, for which the binding signal was found to be 1.07 enrichment R. B16 yielded a binding signal of 0.352 enrichment R.

On to B17, for which the binding signal came out at 0.71 enrichment R.

B18 showed a binding signal of 0.976 enrichment R. In turn, B19 registered a binding signal of 0.869 enrichment R. Regarding B20, the binding signal came to 1.19 enrichment R.

B21 showed a binding signal of 1.21 enrichment R. As to B22, the binding signal was 1.02 enrichment R.
